Assay results taken from PubChem BioAssay AID1347165 (National Center for Advancing Translational Sciences (NCATS), 2019).
Screen size: about 220,000 compounds; about 5,700 (2.6%) were called active. Inconclusive means that the source gave no clear call. Such entries were picked first, then a sample of the others. Calls come from the whole dose curve; as a rule, active = well fitted inhibition curve with a large enough effect; inconclusive = small, poorly fitted or top-dose-only effect; inactive = no such curve, though single readings can be large or run the other way. A potency beside an inconclusive call is a rough fit, not a confirmed value.

Target: Lysine-specific demethylase 5B (Homo sapiens) (UniProt Q9UGL1)
Test: Primary screen for KDM5B Histone Demethylases FDH-coupled qHTS; note: nearly all actives have a fitted effect of over 70% in size; for activity change, negative = inhibition: 0% is about no effect
Conditions: FDH-coupled NADH fluorescence (FDH is formaldehyde dehydrogenase); activity change, negative = inhibition: at 57.7 µM (top of the series) unless noted
Outline: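 Inhibition is measured as reduced NADH fluorescence generation from FDH coupling to formaldehyde release. Truncated KDM5BΔAP at 200 nM final acts on H3K4me3 peptide (12.5 µM in substrate mix) in pH 7.5 HEPES buffer with Tween-20, 30 min, room temperature.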
Potency is the fitted concentration of half-maximal effect; tags give direction and shape of the fitted curve.

UniProt Q9UGL1, sequence (Q9UGL1 whole entry, looked up): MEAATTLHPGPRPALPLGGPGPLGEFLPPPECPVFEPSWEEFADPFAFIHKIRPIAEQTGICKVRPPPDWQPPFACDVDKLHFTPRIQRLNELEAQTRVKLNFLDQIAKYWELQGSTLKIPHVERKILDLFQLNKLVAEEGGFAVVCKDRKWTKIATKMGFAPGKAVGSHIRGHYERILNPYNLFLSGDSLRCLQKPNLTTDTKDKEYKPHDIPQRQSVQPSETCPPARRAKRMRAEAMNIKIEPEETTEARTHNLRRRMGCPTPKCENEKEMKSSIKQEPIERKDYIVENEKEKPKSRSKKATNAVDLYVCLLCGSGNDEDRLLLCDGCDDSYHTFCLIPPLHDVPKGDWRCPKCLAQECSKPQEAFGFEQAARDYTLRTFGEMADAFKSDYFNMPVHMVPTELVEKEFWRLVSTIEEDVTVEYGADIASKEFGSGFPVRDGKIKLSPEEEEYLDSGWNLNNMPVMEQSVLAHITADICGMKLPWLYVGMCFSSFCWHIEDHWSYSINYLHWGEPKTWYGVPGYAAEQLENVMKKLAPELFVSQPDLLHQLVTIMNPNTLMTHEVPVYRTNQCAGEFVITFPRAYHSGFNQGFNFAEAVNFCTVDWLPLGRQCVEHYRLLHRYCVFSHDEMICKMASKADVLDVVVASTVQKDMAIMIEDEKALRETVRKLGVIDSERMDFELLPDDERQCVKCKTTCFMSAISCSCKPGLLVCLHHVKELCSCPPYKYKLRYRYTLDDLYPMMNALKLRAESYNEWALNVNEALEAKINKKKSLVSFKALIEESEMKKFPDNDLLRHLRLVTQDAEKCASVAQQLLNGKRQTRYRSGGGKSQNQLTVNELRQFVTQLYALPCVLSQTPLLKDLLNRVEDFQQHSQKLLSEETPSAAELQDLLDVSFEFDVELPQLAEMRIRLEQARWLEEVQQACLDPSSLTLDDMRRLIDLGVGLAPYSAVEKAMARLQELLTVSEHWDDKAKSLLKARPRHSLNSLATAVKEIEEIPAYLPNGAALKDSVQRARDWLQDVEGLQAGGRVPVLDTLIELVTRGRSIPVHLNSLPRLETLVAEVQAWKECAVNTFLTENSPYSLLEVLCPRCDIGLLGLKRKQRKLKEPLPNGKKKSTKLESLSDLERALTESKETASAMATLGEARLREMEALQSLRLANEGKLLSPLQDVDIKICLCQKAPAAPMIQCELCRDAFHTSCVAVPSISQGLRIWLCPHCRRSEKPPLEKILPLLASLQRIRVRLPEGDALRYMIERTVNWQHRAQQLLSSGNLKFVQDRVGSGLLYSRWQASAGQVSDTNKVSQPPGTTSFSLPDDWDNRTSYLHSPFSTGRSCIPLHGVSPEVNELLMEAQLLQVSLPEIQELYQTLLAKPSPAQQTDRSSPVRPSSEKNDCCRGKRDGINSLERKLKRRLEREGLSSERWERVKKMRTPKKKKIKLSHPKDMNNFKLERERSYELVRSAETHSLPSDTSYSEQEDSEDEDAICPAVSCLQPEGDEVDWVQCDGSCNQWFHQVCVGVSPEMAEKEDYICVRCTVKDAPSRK

| Compound | Potency | activity change, negative = inhibition |
| --- | --- | --- |
| COc1ccc(-c2c(NC(=O)c3ccc(F)cc3)oc3ccccc3c2=O)cc1 | inactive |  |
| CCn1nccc1C(=O)N1[C@@H]2CC[C@H]1CC(NC(=O)c1cnc(C)cn1)C2 (stereo not given in full) | inactive |  |
| Cc1c(C)n(CCN(C)C)c2ncn3nc(-c4ccccc4Cl)nc3c12 | inconclusive: 1.78 µM [inhibitor, full curve, poor fit] |  |
| CCc1ccc(-n2c(=O)c3sc4ccccc4c3n(CC(=O)NC3CCCCC3)c2=O)cc1 | inconclusive: 1.78 µM [inhibitor, partial curve, poor fit] |  |
| COC(=O)c1ccc(CN(C)C(=O)c2ccc(Cl)c(S(=O)(=O)NC3CC3)c2)cc1 | inactive |  |
| Cc1ccc(NC(=O)Cn2nc(-c3ccncc3)ccc2=O)cc1Cl | inconclusive: 44.7 µM [inhibitor, single point] |  |
| Cc1ccc(-c2cc(C(=O)O)c3cc(Br)ccc3n2)cc1 | inactive |  |
| COc1ccc(C(=O)CCS(=O)(=O)c2ccc(F)cc2)cc1OC | inconclusive: 39.8 µM [inhibitor, partial curve, poor fit] |  |
| CC(C)CNc1oc(-c2ccccc2Cl)nc1C#N | inconclusive: 31.6 µM [inhibitor, single point] |  |
| COc1ccc(S(=O)(=O)NCCCO)cc1-c1nnc2c3ccccc3c(C)nn12 | inconclusive: 22.4 µM [inhibitor, partial curve, poor fit] |  |
| Cc1sc(NC(=O)CSc2n[nH]c(N)n2)c(C#N)c1C | inconclusive: 28.2 µM [inhibitor, single point] |  |
| CCCCC(NC(=O)C(c1ccccc1)C1CCCC1)c1ccccc1 (stereo not given) | inactive |  |
| Cc1cccc(C)c1NC(=O)N1CCC2(CC1)SCC(=O)N2Cc1ccccc1 | inconclusive: 20 µM [inhibitor, partial curve, poor fit] |  |
| CC(C)OCCCNC(=O)c1cc(-c2cccs2)nc2ccccc12 | inconclusive: 25.1 µM [inhibitor, partial curve, poor fit] |  |
| CC#CC[N+](C)(CC#CC)CC(=O)C(C)(C)C | inactive |  |
| O=C(NCc1cc(F)cc(F)c1)c1ccc(Cn2ccn3nc4c(c3c2=O)CCCC4)cc1 | inconclusive: 28.2 µM [inhibitor, single point] |  |
| Cc1cc2cc(-c3c(C)noc3C)nc(N3CCCC3)c2o1 | inconclusive: 39.8 µM [inhibitor, partial curve, poor fit] |  |
| CCOC(=O)C1CCN(C(=O)Cn2ncn3nc(-c4ccco4)cc3c2=O)CC1 | inconclusive: 1.78 µM [inhibitor, full curve, poor fit] |  |
| Cc1ccc(CN(C(=O)COc2ccc(Cl)c(C)c2)C2CCS(=O)(=O)C2)o1 (stereo not given) | inconclusive: 1 µM [inhibitor, full curve, poor fit] |  |
| CCn1nc(C(=O)NCCc2ccc(S(N)(=O)=O)cc2)c2ccccc2c1=O | inconclusive: 39.8 µM [inhibitor, single point] |  |
| Cc1ccc(Cl)cc1NC(=O)Cn1c(=O)n(CCCS(=O)(=O)C2CCCCC2)c(=O)c2ccccc21 |  | inconclusive: -42.8% [inhibitor] |
| O=C(NC1CCN(c2cc(-c3ccc(Cl)cc3)[nH]n2)C1)c1ccccc1F (stereo not given) | inconclusive: 5.62 µM [inhibitor, partial curve] |  |

| Compound | Potency | activity change, negative = inhibition |
| --- | --- | --- |
| CN1c2cc(C(=O)Nc3ccc(F)c(Cl)c3)ccc2C(=O)N2CCCCC21 (stereo not given) | inconclusive: 25.1 µM [inhibitor, partial curve, poor fit] |  |
| CCc1ccc(NC(=O)C(C)n2nnc3sc(-c4ccccc4)cc3c2=O)cc1 (stereo not given) |  | inconclusive: -32.1% [inhibitor] |
| Cc1cnc(CC2CCN(Cc3ccc(F)cc3F)C2)n1CC1CC1 (stereo not given) | inconclusive: 39.8 µM [inhibitor, single point] |  |
| CCCCc1ccc(NC(=O)c2ccc3c(c2)N(S(C)(=O)=O)CC3)cc1 | inconclusive: 20 µM [inhibitor, single point] |  |
| Fc1ccc(N=Cc2ccc3ncccc3c2)c(Cl)c1 | inconclusive: 39.8 µM [inhibitor, single point] |  |
| COc1cccc(C(=O)NCC2CCCN(Cc3ccc(C)cc3)C2)c1OC (stereo not given) | inactive |  |
| COc1ccc(-c2cc(-c3ccc(F)cc3OC)cn3cncc23)cc1 | active: 10 µM |  |
| COc1cc(/C=C2\CCc3c2nc2ccccc2c3C(=O)O)cc(OC)c1OC | inconclusive: 39.8 µM [inhibitor, single point] |  |
| Cc1ccccc1N1CCN(C(=O)c2cc3ccccc3[nH]2)CC1 | inactive |  |
| O=C(CSc1nc2ccccc2nc1N1CCCCC1)Nc1cccc(Br)c1 | inconclusive: 35.5 µM [inhibitor, partial curve, poor fit] |  |
| CNc1nc(-c2ccc(NS(C)(=O)=O)cc2)cs1 | inactive |  |
| Cc1cc(C)nc(SCC(=O)Nc2ccccc2C(N)=O)n1 | inactive |  |
| CC(=O)Nc1ccc(CN2CCn3c(nnc3-c3cccnc3)C2)cc1 | inconclusive: 89.1 µM [inhibitor, partial curve, poor fit] |  |
| Cc1nc2ccc(S(=O)(=O)CCC(=O)Nc3ccc(C)c(C)c3)cc2s1 |  | inconclusive: -31% [inhibitor] |
| O=C(/C=C/c1ccncc1)c1cc(Cl)ccc1O | inconclusive: 28.2 µM [inhibitor, partial curve, poor fit] |  |
| O=C(CCc1nc(-c2ccccc2)c(-c2ccccc2)o1)N1CCN(C(=O)C2CC2)CC1 | inactive |  |
| COc1ccc(CCN2Cc3c(N)cccc3C2=O)cc1OC | inconclusive: 39.8 µM [inhibitor, single point] |  |
| Cc1ccn2c(Nc3ccc4c(c3)OCO4)c(-c3ccc(N(C)C)cc3)nc2c1 | inconclusive: 14.1 µM [inhibitor, partial curve, poor fit] |  |
| N#CCOc1nc(-c2ccco2)c2c(c1C#N)CCC2 | inconclusive: 31.6 µM [inhibitor, partial curve, poor fit] |  |
| Cc1nc(Nc2ccc(Cl)cc2)cc(-c2ccccc2)n1 | inconclusive: 31.6 µM [inhibitor, partial curve, poor fit] |  |
| COc1cc(OC)c(OC)cc1/C=N/NC(=O)c1ccc(CSc2nc(C)cc(C)n2)cc1 | inconclusive: 25.1 µM [inhibitor, partial curve, poor fit] |  |
| CC(C)C(=O)N1c2ncnn2C2(CCCCC2)[C@@H]2CCCC[C@@H]21 | inconclusive: 11.2 µM [inhibitor, partial curve, poor fit] |  |

| Compound | Potency | activity change, negative = inhibition |
| --- | --- | --- |
| COc1cc(NC(=O)c2ccc3c(c2)N(C)C2CCCCCN2C3=O)cc(OC)c1 (stereo not given) | inconclusive: 28.2 µM [inhibitor, partial curve, poor fit] |  |
| COc1ccc(C2CC(=O)N(Cc3ccc(F)cc3)c3ccccc3S2)cc1 (stereo not given) |  | inconclusive: -32.6% [inhibitor] |
| CCc1cc(=O)n(CC(=O)N2CCN(c3ccc(OC)cc3)CC2)c(-c2ccccc2)n1 | inconclusive: 39.8 µM [inhibitor, partial curve, poor fit] |  |
| CC(C)Cn1c(=O)c2sccc2n2c(CCCC(=O)NCCc3ccccc3)nnc12 | inconclusive: 25.1 µM [inhibitor, partial curve, poor fit] |  |
| COc1cccc(C(=O)NCC(=O)OCc2cc(=O)n3c(C)csc3n2)c1 | inconclusive: 25.1 µM [inhibitor, single point] |  |
| ClCc1coc(-c2ccc(Cl)cc2)n1 | inactive |  |
| CCN1CCN(c2oc(-c3ccc(COc4ccc(C)cc4)o3)nc2C#N)CC1 | inconclusive: 3.98 µM [inhibitor, partial curve, poor fit] |  |
| COc1ccccc1CNC(=O)c1ncoc1-c1cccs1 | inconclusive: 25.1 µM [inhibitor, partial curve, poor fit] |  |
| CCCCNC(=O)c1ccc2c(c1)NC(=O)C(CS(=O)(=O)Cc1cccc(C)c1)N2 (stereo not given) | inconclusive: 17.8 µM [inhibitor, partial curve, poor fit] |  |
| CCN(CC)CCCNC(=O)c1oc2ccc3c(c2c1C)C(O)CC(C)(C)O3 (stereo not given) | inconclusive: 28.2 µM [inhibitor, partial curve, poor fit] |  |
| CCc1ccccc1NC(=O)Cn1c(N2CCc3ccccc3C2)nc(C)cc1=O | inconclusive: 10 µM [inhibitor, partial curve, poor fit] |  |
| Cc1nn2c(c1-c1cccnc1N1CCOCC1)N(Cc1ccccc1)CCC2 | inconclusive: 14.1 µM [inhibitor, partial curve] |  |
| COc1ccc(S(=O)(=O)N2C[C@@H]3C[C@H](C2)c2ccc(NC(=O)c4ccc(C#N)cc4)c(=O)n2C3)cc1 | inactive |  |
| O=C(c1ccco1)n1nc(-c2ccccc2)nc1NCc1ccc(F)cc1 | inconclusive: 28.2 µM [inhibitor, partial curve, poor fit] |  |
| COc1cccc2sc(N(Cc3cccnc3)C(=O)Cc3ccccc3)nc12 | inconclusive: 1.41 µM [inhibitor, partial curve, poor fit] |  |
| COCc1nncn1C1CCN(S(=O)(=O)c2ccc(C)cc2C)CC1 | inactive |  |
| COC(=O)COc1cccn2c(=O)c(-c3cc(C)n(-c4ccc(C)cc4C)n3)c(C)nc12 | active: 28.2 µM |  |
| N#C/C(=C/c1ccc(OC(F)F)cc1)C(=O)Nc1cccc(C(F)(F)F)c1 | inactive |  |
| Cc1ccc(CNc2nc3ccccc3nc2NS(=O)(=O)c2ccc(C)cc2)cc1 | inactive |  |
| CCn1c(=S)[nH]c2cc(Cl)ccc21 | inactive |  |
| CCN1CCN(c2cc3c(cc2F)c(=O)c(S(=O)(=O)c2ccc(OC)cc2)cn3CC)CC1 | inconclusive: 31.6 µM [inhibitor, partial curve, poor fit] |  |
